In PubChem BioAssay AID686971 (National Center for Advancing Translational Sciences (NCATS), 2013):
Out of some 360,000 compounds screened, about 7,500 (2.1%) were called active. Inconclusive results, whose numbers are uncertain, are shown with a selection of clear calls. Calls come from the whole dose curve; as a rule, active = well fitted cell-killing curve with a large enough effect; inconclusive = small, poorly fitted or top-dose-only effect, or effect the other way, or another doubt; inactive = no such curve, though single readings can be large or run the other way. No potency is given beside an inconclusive call; the fits are too rough.

Assay: qHTS for induction of synthetic lethality in tumor cells producing 2HG: qHTS for the HT-1080-IDH1KD cell line;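 for activity, negative = toxicity: 0% = DMSO wells and -100% = cell-free medium wells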
Settings: HT-1080 IDH1 knockdown viability, ATP luminescence, 48 h; activity, negative = toxicity: at 46.1 µM (top of the series) unless noted
In short: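 IDH1KD HT-1080 cells, 750/well, RPMI + 5% FBS; compound pinned after 2 h settling; 48 h, 37 °C; CellTiter-Glo luminescence; % activity normalised to DMSO and no-cell wells; curves fitted, classed by r2 and efficacy.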
Potency is the fitted concentration of half-maximal effect; tags give direction and shape of the fitted curve.

| SMILES | Potency | activity, negative = toxicity |
| --- | --- | --- |
| COc1ccc(C2=CC(=O)C[C@H](c3ccc(OC)cc3)C2)cc1 | inactive | – |
| COC(=O)c1cc(OC)c(OC)cc1NC(=O)Cn1nnc(-c2ccccc2Cl)n1 | inactive | – |
| CCOC(=O)N1CCC(N2Cc3cccc(C(=O)N4CCN(c5cccc(C)c5C)CC4)c3C2=O)CC1 | inactive | – |
| COc1ccc(-c2ccc(C(=O)NCc3ccc(C(F)(F)F)cc3)c3occc23)c(C)c1 | inconclusive [cytotoxic, single point] | – |
| Cc1ccc(NC(=O)COC(=O)c2ccc(-n3nc(C)cc3C)cc2)c(F)c1 | inactive | – |
| Cc1ccc(-n2ncc3c(NCc4cccnc4)ncnc32)cc1C | inactive | – |
| COC(=O)N/N=C/c1cn(CC(C)COc2ccccc2)c2ccccc12 (configuration not stated) | inactive | – |
| Cc1c(F)cccc1NS(=O)(=O)c1ccc2c(c1)n(C)c(=O)c(=O)n2C | inactive | – |
| CN(C(=O)CSc1nc(-c2ccc(C(C)(C)C)cc2)c(C#N)c(=O)[nH]1)C1CCCCC1 | inactive | – |
| CO/N=C/c1ccc(OC)c(Oc2nc(OC)cc(OC)n2)c1 | inconclusive [cytotoxic, partial curve] | – |
| COCCCNC(=O)c1ccc(Cn2c(=O)c3ccccc3n(Cc3ccccc3C#N)c2=O)cc1 | inconclusive [cytotoxic, partial curve, poor fit] | – |
| COc1ccc(CC(CC(=O)O)C(=O)Nc2ccc(OC)cc2)cc1 (configuration not stated) | inactive | – |
| O=C(Nc1sc2c(c1C(=O)O)CCCCC2)c1ccco1 | inconclusive [cytotoxic, single point] | – |
| CCN(CC)CCn1c(=N)n(CCOc2ccccc2)c2ccccc21 | active: 10 µM | – |
| CCC(=NCc1ccc(Cl)c(Cl)c1)c1nc(-c2ccco2)oc1O | – | inconclusive: -36.3% [cytotoxic] |
| CCOc1ccccc1CNC(=O)CCn1ccc2cc(S(=O)(=O)N3CCCCC3)ccc21 | inactive | – |
| O=C(N/N=C/c1cc(Cl)cc([N+](=O)[O-])c1O)c1ccc2c(c1)OCO2 | inactive | – |
| Cc1cc(-c2ccccc2)nc(N/N=C/c2ccc(O)cc2)n1 | inconclusive [cytotoxic, partial curve] | – |
| OC(CNCCNc1ncccc1C(F)(F)F)COc1ccc(F)cc1 (configuration not stated) | – | inconclusive: -30.5% [cytotoxic] |
| CCN1CCN(c2cc(-c3ccccc3)nc3cc(-c4cccc(F)c4)nn23)CC1 | inconclusive [cytotoxic, single point] | – |
| COc1ccc2c(c1)[nH]c1c(=O)n(Cc3ccco3)cnc12 | inconclusive [cytotoxic, single point] | – |
| Cc1ccc(S(=O)(=O)Cc2ccc(C(=O)NCc3ccc4c(c3)OCO4)o2)cc1 | inactive | – |
